Experimental data: PubChem BioAssay AID924 (National Center for Advancing Translational Sciences (NCATS), 2007)
The campaign covered roughly 130,000 compounds. About 1,200 (0.92%) were called active. The shares of active, inactive and inconclusive entries below differ from those in the screen. Calls follow the shape of the dose curve; as a rule, active = well fitted cell-killing curve with a large enough effect; inconclusive = small, poorly fitted or top-dose-only effect; inactive = no such curve, though single readings can be large or run the other way. Potencies of inconclusive entries are doubtful fits and often do not repeat.

test: qHTS Screen for Compounds that Selectively Target Cancer Cells with p53 Mutations: Cytotoxicity of p53ts Cells at the Permissive Temperature; settings: H1299-p53A138V at 32C, ATP luminescence viability, 24 h; series mostly up to 46.1 µM; also: nearly all actives have a fitted effect of over 55% in size
Method in brief: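 Cells: H1299 p53ts (A138V), 600/well, pre-incubated 16–30 h at 37C. Cpd up to 46 uM, 24 h, 32C. Readout: ATPlite luminescence, 20 min RT. Normalization: DMSO vs tamoxifen 100 uM. AC50 by Hill equation.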
Potency is read from the fitted curve at half-maximal effect; tags tell the direction and shape of the fitted curve.

SMILES | Potency
COc1cccc(NC(=S)N/N=C2/CCCCc3ccccc32)c1 | inconclusive: 20 µM [cytotoxic, partial curve, poor fit]
Cc1ccc(NC(=O)Cn2c(=O)ccc3cc(S(=O)(=O)N4CCC(C)CC4)ccc32)cc1Cl | inactive
COc1ccc2nc(NC3=NCCC3)sc2c1 | inconclusive: 10 µM [cytotoxic, partial curve]
Cc1cccc(NC(=O)CSc2cc(C)c3ccccc3n2)c1 | inconclusive: 5.01 µM [cytotoxic, full curve, poor fit]
COc1ccccc1NC(=S)NNC(=O)c1ccc(Cl)cc1Cl | inconclusive: 14.1 µM [cytotoxic, partial curve, poor fit]
CNC(=O)COc1ccc(Nc2nnc(-c3ccc(C)c(S(=O)(=O)NC(C)(C)C)c3)c3ccccc23)cc1 | inconclusive: 31.6 µM [cytotoxic, single point]
COc1ccc(NC(=O)CCn2cccn2)cc1OC | inactive
COC(=O)c1c(NC(=O)COc2cc(C)ccc2C(C)C)sc2c1CCC(C)C2 (stereo not drawn) | inactive
Nc1nc(Cl)nc2c1ncn2[C@@H]1O[C@@H](COP(=O)(O)OP(=O)(O)OP(=O)(O)O)[C@@H](O)[C@H]1O | inconclusive: 12.6 µM [cytotoxic, partial curve]
CCn1c(=O)cc(SCC(=O)NCCc2ccc(OC)cc2OC)c2ccccc21 | inactive
COc1ccc(NC(=O)Cn2c(SCc3ccc(C)cc3)nc3cccnc32)c(OC)c1 | inconclusive: 12.6 µM [cytotoxic, partial curve]
CCc1c(C)nc2cc(-c3ccc(OC)cc3)[nH]n2c1=O | inconclusive: 10 µM [cytotoxic, partial curve]
Cc1nn(C(C)C(=O)N2CCCCC2)c(=O)c2c1sc1ccccc12 (stereo not drawn) | inactive
COc1ccccc1CNC(=O)CCCCn1c(=O)c2ccccc2n(CC(=O)Nc2cc(Cl)ccc2C)c1=O | inconclusive: 12.6 µM [cytotoxic, single point]
Cc1ccc(Nc2nnc(SCC3CCCCO3)s2)cc1 (stereo not drawn) | inconclusive: 12.6 µM [cytotoxic, single point]
COc1ccc(/C=C(\C#N)c2nc3ccccc3n2C)c(OC)c1 | inconclusive: 15.8 µM [cytotoxic, partial curve]
O=C(NCc1cccs1)c1ccc(Cn2c(SCc3ccc(F)cc3)nc3cccnc32)cc1 | inconclusive: 12.6 µM [cytotoxic, single point]
COc1ccc(NC(=O)c2cc3ccccc3o2)cc1 | active: 15.8 µM
COCCCNC(=O)c1ccc(Cn2c(SCc3cccc(C)c3)nc3cccnc32)cc1 | inconclusive: 14.1 µM [cytotoxic, single point]
Cc1ccc(N(C(=O)Cn2nnc(-c3ccc(C)o3)n2)C(C(=O)NC2CCCC2)c2ccco2)cc1 (stereo not drawn) | inconclusive: 10 µM [cytotoxic, partial curve]
CSc1ccc(/C=N/n2c(C)cc(C)cc2=O)cc1 | inconclusive: 20 µM [cytotoxic, single point]
COc1ccc2nc(-c3ccccc3)[nH]c2c1 | active: 10 µM

SMILES | Potency
COc1ccccc1CN1CCC(CNC(=O)c2cnn(-c3ccc(Cl)cc3)c2C2CCN(C(=O)OC(C)(C)C)CC2)CC1 | inconclusive: 31.6 µM [cytotoxic, single point]
Cc1ccccc1NC(=O)c1ccc(Cl)c(S(=O)(=O)N2CCCCCC2)c1 | inconclusive: 22.4 µM [cytotoxic, single point]
Cc1cccc(NC(=O)CSc2nc3ccc(NC(=O)COc4ccccc4F)cc3s2)c1 | inconclusive: 10 µM [cytotoxic, partial curve]
COC(=O)Cn1c(CN2CCc3ccccc3C2)nc2c1c(=O)n(C)c(=O)n2C | active: 5.01 µM
COc1cccc(-n2nnc(-c3nc(-c4ccccc4F)no3)c2C)c1 | inconclusive: 10 µM [cytotoxic, partial curve]
Fc1ccc(-c2cn3cc(Cc4ccccc4)sc3n2)cc1 | active: 2.24 µM
CCCCS(=O)(=O)c1nc(-c2ccc(Br)cc2)cc(-c2ccccc2)c1C#N | active: 2 µM
Cc1cc(C(=O)Nc2sc(C)c(C)c2C#N)no1 | inconclusive: 12.6 µM [cytotoxic, single point]
COc1ccc(C(=O)Nc2ccc(N3CCOCC3)c(C(F)(F)F)c2)cc1OC | inconclusive: 35.5 µM [cytotoxic, single point]
C(=N\n1cnnc1)/c1cn(-c2cccs2)nc1-c1ccccc1 | inconclusive: 25.1 µM [cytotoxic, single point]
Cc1ccc2nc(Nc3ccc4[nH]c(=O)[nH]c4c3)c(-n3nc(C)cc3C)nc2c1 | inconclusive: 20 µM [cytotoxic, single point]
COc1ccccc1CN1CCC(CNC(=O)c2cnn(-c3ccc(C)c(C)c3)c2C2CCN(C(=O)OC(C)(C)C)CC2)CC1 | inconclusive: 31.6 µM [cytotoxic, single point]
Cc1ccn2c(Nc3ccc4c(c3)OCCO4)c(-c3ccc(C)s3)nc2c1 | inconclusive: 10 µM [cytotoxic, partial curve]
COC(=O)c1sc(N2C(=O)C(O)=C(C(=O)c3ccc(C)o3)C2c2ccc(F)cc2)nc1C (stereo not drawn) | inactive
O=c1c(N2CCc3ccccc3C2)csc2ccc(Br)cc12 | inactive
Cc1ccc(O)c(C2=Nc3ccccc3N=C(c3cccc(F)c3)C2)c1 | inconclusive: 15.8 µM [cytotoxic, partial curve]
COc1cccc(-c2cc(NCc3ccccc3)ncn2)c1 | inconclusive: 20 µM [cytotoxic, single point]
O=C(NC1CCCCCCC1)c1ccc2c(c1)OCO2 | inconclusive: 10 µM [cytotoxic, partial curve]
Cn1c(-c2ccccc2)cnc1SCc1nc2ccccc2c(=O)[nH]1 | active: 12.6 µM
O=C(NCc1ccc2c(c1)OCO2)c1c(F)c(F)c(F)c(F)c1F | inconclusive: 15.8 µM [cytotoxic, single point]
CCc1c(C)c2ccc(O)c(CN3CCN(c4ccccc4)CC3)c2oc1=O | inconclusive: 12.6 µM [cytotoxic, partial curve]
